Measured values as given in PMC11699347.
Results are given in words; binding and its absence hold for the method and conditions named. For part of these data: In cells and extracts the contact can be indirect. Some binding calls cover weakened binding; strength is not graded here. For part of these data: Sequences can lack the tags named with a protein.

Sequences of proteins named here, by UniProt entry; tags and fusion partners are left off. A change or cut given only in a name is not applied to a line headed by its entry. A line that says so, or that is headed by a name, gives the form on record, which may keep a tag or linker.
UniProt P97303: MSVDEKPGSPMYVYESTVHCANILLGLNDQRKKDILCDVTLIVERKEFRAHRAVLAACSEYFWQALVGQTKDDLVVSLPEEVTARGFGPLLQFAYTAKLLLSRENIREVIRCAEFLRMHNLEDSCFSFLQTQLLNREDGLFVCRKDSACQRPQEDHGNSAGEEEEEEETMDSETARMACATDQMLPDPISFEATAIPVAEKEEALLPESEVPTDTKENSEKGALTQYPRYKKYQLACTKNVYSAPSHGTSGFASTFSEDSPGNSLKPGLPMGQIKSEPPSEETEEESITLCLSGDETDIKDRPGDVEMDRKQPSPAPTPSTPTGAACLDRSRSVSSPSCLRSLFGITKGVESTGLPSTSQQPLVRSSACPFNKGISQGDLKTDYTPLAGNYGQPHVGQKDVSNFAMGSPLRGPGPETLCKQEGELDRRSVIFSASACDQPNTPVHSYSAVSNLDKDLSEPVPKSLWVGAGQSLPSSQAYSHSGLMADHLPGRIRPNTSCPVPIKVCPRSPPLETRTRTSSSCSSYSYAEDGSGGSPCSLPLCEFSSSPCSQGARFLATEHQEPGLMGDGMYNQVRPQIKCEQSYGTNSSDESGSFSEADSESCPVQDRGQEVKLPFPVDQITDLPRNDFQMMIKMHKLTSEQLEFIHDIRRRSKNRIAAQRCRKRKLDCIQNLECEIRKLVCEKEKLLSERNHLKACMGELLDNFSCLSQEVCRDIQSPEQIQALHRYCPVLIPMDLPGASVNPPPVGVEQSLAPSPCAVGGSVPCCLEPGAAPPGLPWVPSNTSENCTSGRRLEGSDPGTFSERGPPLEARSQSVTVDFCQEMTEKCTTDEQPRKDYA
FLAG-BACH2-NHR-5 (P97303, form named): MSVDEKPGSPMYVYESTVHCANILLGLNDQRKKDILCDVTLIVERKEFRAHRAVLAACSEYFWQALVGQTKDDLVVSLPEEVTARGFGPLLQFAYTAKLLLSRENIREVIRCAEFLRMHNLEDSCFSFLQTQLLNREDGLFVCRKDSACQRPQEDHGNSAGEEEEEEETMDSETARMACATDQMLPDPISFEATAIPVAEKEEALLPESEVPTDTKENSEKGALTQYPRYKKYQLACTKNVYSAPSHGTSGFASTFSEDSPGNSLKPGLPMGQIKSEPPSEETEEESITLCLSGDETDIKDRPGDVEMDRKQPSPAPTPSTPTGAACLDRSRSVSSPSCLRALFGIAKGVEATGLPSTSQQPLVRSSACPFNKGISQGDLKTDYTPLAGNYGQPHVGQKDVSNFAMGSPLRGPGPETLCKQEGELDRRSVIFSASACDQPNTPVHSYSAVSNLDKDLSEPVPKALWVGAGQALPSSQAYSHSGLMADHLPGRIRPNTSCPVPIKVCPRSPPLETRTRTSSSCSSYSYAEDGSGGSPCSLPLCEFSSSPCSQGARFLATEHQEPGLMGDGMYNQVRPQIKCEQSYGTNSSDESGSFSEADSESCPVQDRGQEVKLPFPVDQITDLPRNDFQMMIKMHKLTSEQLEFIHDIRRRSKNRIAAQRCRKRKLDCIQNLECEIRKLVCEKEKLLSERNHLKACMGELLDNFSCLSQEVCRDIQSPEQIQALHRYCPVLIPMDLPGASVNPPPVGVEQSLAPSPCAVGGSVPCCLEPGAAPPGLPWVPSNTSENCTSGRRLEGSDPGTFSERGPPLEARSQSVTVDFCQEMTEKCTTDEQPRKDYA

B1: hFBXO22 VP-16 AD fusion (pFN10A-hFBXO22), Q8NEZ5-1 1-403 (protein)
chain: MEPVGCCGECRGSSVDPRSTFVLSNLAEVVERVLTFLPAKALLRVACVCRLWRECVRRVLRTHRSVTWISAGLAEAGHLEGHCLVRVVAEELENVRILPHTVLYMADSETFISLEECRGHKRARKRTSMETALALEKLFPKQCQVLGIVTPGIVVTPMGSGSNRPQEIEIGESGFALLFPQIEGIKIQPFHFIKDPKNLTLERHQLTEVGLLDNPELRVVLVFGYNCCKVGASNYLQQVVSTFSDMNIILAGGQVDNLSSLTSEKNPLDIDASGVVGLSFSGHRIQSATVLLNEDVSDEKTAEAAMQRLKAANIPEHNTIGFMFACVGRGFQYYRAKGNVEADAFRKFFPSVPLFGFFGNGEIGCDRIVTGNFILRKCNEVKDDDLFHSYTTIMALIHLGSSK
B2: TBK1 in HEK293T cells (enzyme, UniProt Q9UHD2 1-729)
chain: MQSTSNHLWLLSDILGQGATANVFRGRHKKTGDLFAIKVFNNISFLRPVDVQMREFEVLKKLNHKNIVKLFAIEEETTTRHKVLIMEFCPCGSLYTVLEEPSNAYGLPESEFLIVLRDVVGGMNHLRENGIVHRDIKPGNIMRVIGEDGQSVYKLTDFGAARELEDDEQFVSLYGTEEYLHPDMYERAVLRKDHQKKYGATVDLWSIGVTFYHAATGSLPFRPFEGPRRNKEVMYKIITGKPSGAISGVQKAENGPIDWSGDMPVSCSLSRGLQVLLTPVLANILEADQEKCWGFDQFFAETSDILHRMVIHVFSLQQMTAHKIYIHSYNTATIFHELVYKQTKIISSNQELIYEGRRLVLEPGRLAQHFPKTTEENPIFVVSREPLNTIGLIYEKISLPKVHPRYDLDGDASMAKAITGVVCYACRIASTLLLYQELMRKGIRWLIELIKDDYNETVHKKTEVVITLDFCIRNIEKTVKVYEKLMKINLEAAELGEISDIHTKLLRLSSSQGTIETSLQDIDSRLSPGGSLADAWAHQEGTHPKDRNVEKLQVLLNCMTEIYYQFKKDKAERRLAYNEEQIHKFDKQKLYYHATKAMTHFTDECVKKYEAFLNKSEEWIRKMLHLRKQLLSLTNQCFDIEEEVSKYQEYTNELQETLPQKMFTASSGIKHTMTPIYPSSNTLVEMTLGMKKLKEEMEGVVKELAENNHILERFGSLTMDGGLRNVDCL

What was measured:
[1] = target: hBACH2 GAL4-DBD fusion (pFN26A-hBACH2) (human), Q9BYV9; assay: two-hybrid; mammalian two-hybrid in HEK293T: GAL4-DBD fusion (pFN26A) and VP-16 AD fusion (pFN10A), pGL4.35-9xGAL4UAS-Luc reporter; also with co-expressed TBK1 or TBK1(S172A) and the TBK1 inhibitor MRT67307; conditions: remark: other sources report otherwise
[2] = target: FLAG-BACH2 (wild-type) (mouse) (UniProt P97303); assay: co-IP; HEK293T transfected with FLAG-BACH2 wild type or mutants; lysate (50 mM Tris-HCl pH 8.0, 120 mM NaCl, 0.1% Triton X-100), anti-FLAG magnetic beads 2 h at 4°C, FLAG peptide elution, immunoblot
FLAG-BACH2-NHR-5 (mouse) = FLAG-BACH2-NHR-5 (mouse) (UniProt P97303); assay: as above

| Binder | binding [1] | binding [2] | binding (FLAG-BACH2-NHR-5 (mouse)) |
| --- | --- | --- | --- |
| B1 | binds |  |  |
| B2 |  | binds | binds |
